ChEMBL document CHEMBL5606460, “ASAP - DENV-2 NS2B-NS3 protease fluorescence single point” (2024)
Among all 2,000 compounds or so, about 110 (5.5%) showed an effect of 50% or more. The list shows a part of the results.

Molecular target: Genome polyprotein (dengue virus type 2) (UniProt P29990)
[1] = Thailand/16681/1984, Concentration 25.0 uM, Number of replicates 1.0

Q: `COc1ccc(Cl)c2sc(NC(=O)c3ccccc3NS(=O)(=O)c3ccc(Cl)cc3)nc12` was tested. Which inhibition (Thailand/16681/1984, Concentration 198.0 uM, Number of replicates 2.0, Standard deviation 9.166560145189157 %) did it give?
A: 8.28%

Q: `Cc1nc(Br)ccc1NC(=O)C1CCN(c2ccc(C=O)cc2)CC1` was tested. Which inhibition [1] did it give?
A: 13.4%

Q: Which inhibition (Thailand/16681/1984, Concentration 49.5 uM, Number of replicates 2.0, Standard deviation 1.96689901106276 %) does the source give for `COC(=O)c1ccc(F)c(Cn2cc(C3CCNCC3)c(C)n2)c1` here?
A: -0.608%

Q: What about the inhibition (Thailand/16681/1984, Concentration 99.01 uM, Number of replicates 2.0, Standard deviation 1.219684003354366 %) of the same compound?
A: -0.57%

Q: And the inhibition (Thailand/16681/1984, Concentration 198.0 uM, Number of replicates 2.0, Standard deviation 1.1083766841745815 %)?
A: 0.281%

Q: With `CC(=O)N1CCC(N(C)C(=O)C2CCN(c3ccc(C=O)cc3)CC2)CC1` as the compound, how does the inhibition [1] read?
A: 10.9%

Q: With `C[C@H](NC(=O)C1CCN(c2ccc(C=O)cc2)CC1)c1ccc([N+](=O)[O-])cc1` as the compound, how does the inhibition [1] read?
A: 13.8%

Q: How did the inhibition [1] turn out when `O=Cc1ccc(N2CCC(C(=O)Nc3ncc(Br)c(C(F)(F)F)n3)CC2)cc1` was run?
A: 13.3%

Q: `Cc1nc(NC(=O)C2CCN(c3ccc(C=O)cc3)CC2)ccc1Br` was tested. Which inhibition [1] did it give?
A: 12.1%

Q: Which inhibition [1] does the source give for `Cc1ccc(CNC(=O)C2CCN(c3ccc(C=O)cc3)CC2)cc1Cl` here?
A: 1.22%

Q: For `O=Cc1ccc(N2CCC(C(=O)N[C@H](CO)CC3CCCCC3)CC2)cc1`, which inhibition [1] is on record?
A: 11.2%

Q: With `O=Cc1ccc(N2CCC(C(=O)Nc3ccc([N+](=O)[O-])cc3)CC2)cc1` as the compound, how does the inhibition [1] read?
A: 24.6%

Q: Which inhibition (Thailand/16681/1984, Concentration 49.5 uM, Number of replicates 2.0, Standard deviation 0.763376195696472 %) does the source give for `CCc1noc(Cn2cc(C3CCNCC3)c(C)n2)n1` here?
A: -3.65%

Q: And the inhibition (Thailand/16681/1984, Concentration 99.01 uM, Number of replicates 2.0, Standard deviation 1.694047900235964 %)?
A: -3.73%

Q: And the inhibition (Thailand/16681/1984, Concentration 198.0 uM, Number of replicates 2.0, Standard deviation 0.453806581859591 %)?
A: -4.1%

Q: Which inhibition (Thailand/16681/1984, Concentration 49.95 uM, Number of replicates 2.0, Standard deviation 0.19795194633808622 %) does the source give for `Cc1cc(CO)c2cccc(C[C@H](NC(=O)c3ccno3)C(=O)O)c2n1` here?
A: 5.14%

Q: And the inhibition (Thailand/16681/1984, Concentration 99.9 uM, Number of replicates 2.0, Standard deviation 0.9228743689775827 %)?
A: 11.5%

Q: How did the inhibition [1] turn out when `O=Cc1ccc(N2CCC(C(=O)Nc3ccccc3)CC2)cc1` was run?
A: 12.1%

Q: What does the source list for `Cc1cc(CO)c2cccc(Cc3cccc(NC(=O)[C@@H]4CCCC[C@H]4C(=O)O)c3)c2n1`?
A: inhibition (Thailand/16681/1984, Concentration 49.95 uM, Number of replicates 2.0, Standard deviation 2.18231720147964 %): 2.94%; inhibition (Thailand/16681/1984, Concentration 99.9 uM, Number of replicates 2.0, Standard deviation 0.994920528996893 %): 9.01%

Q: How did the inhibition [1] turn out when `O=Cc1ccc(N2CCC(C(=O)Nc3cc(F)c(F)cc3Br)CC2)cc1` was run?
A: 12.6%

Q: Which inhibition (Thailand/16681/1984, Concentration 49.95 uM, Number of replicates 2.0, Standard deviation 0.7311314963621214 %) does the source give for `Cc1cc(CO)c2cccc(Cc3ccccc3NC(=O)[C@@H]3CC(=O)CCN3)c2n1` here?
A: 7.33%

Q: What about the inhibition (Thailand/16681/1984, Concentration 99.9 uM, Number of replicates 2.0, Standard deviation 0.026310423064016666 %) of the same compound?
A: 18.5%

Q: Which inhibition [1] does the source give for `CN1CCN2CCN(C(=O)C3CCN(c4ccc(C=O)cc4)CC3)C[C@H]2C1` here?
A: 12%

Q: For `CC(=O)Nc1ccc(C(=O)Nc2ccccc2Cc2cccc3c(CO)cc(C)nc23)cn1`, which inhibition (Thailand/16681/1984, Concentration 49.95 uM, Number of replicates 2.0, Standard deviation 1.6858954774753503 %) is on record?
A: 2.11%

Q: What about the inhibition (Thailand/16681/1984, Concentration 99.9 uM, Number of replicates 2.0, Standard deviation 1.2573247847769908 %) of the same compound?
A: 6.57%

Q: Which results are given for `CCCCCNC(=O)c1cc(Cl)ccc1NS(=O)(=O)c1ccc(Oc2ccccc2Cl)cc1`?
A: inhibition (Thailand/16681/1984, Concentration 49.5 uM, Number of replicates 2.0, Standard deviation 0.23227296801747743 %): 78.7%; inhibition (Thailand/16681/1984, Concentration 99.01 uM, Number of replicates 2.0, Standard deviation 0.006678758202430312 %): 76.9%; inhibition (Thailand/16681/1984, Concentration 198.0 uM, Number of replicates 2.0, Standard deviation 0.04271599955318515 %): 65.6%

Q: Which results are given for `CNc1cc(COc2cccnc2F)nc(N2CCNCC2)n1`?
A: inhibition (Thailand/16681/1984, Concentration 49.5 uM, Number of replicates 2.0, Standard deviation 2.2039377761224554 %): -4.34%; inhibition (Thailand/16681/1984, Concentration 99.01 uM, Number of replicates 2.0, Standard deviation 2.2907073476131674 %): -4.13%; inhibition (Thailand/16681/1984, Concentration 198.0 uM, Number of replicates 2.0, Standard deviation 2.1078244169042724 %): -4.06%

Q: Which inhibition [1] does the source give for `O=Cc1ccc(N2CCC(C(=O)Nc3ccnc(Br)c3)CC2)cc1` here?
A: 11.9%

Q: For `Cc1cc(CO)c2cccc(Cc3ccccc3NC(=O)Cc3csc(Cc4ccccc4)n3)c2n1`, which inhibition (Thailand/16681/1984, Concentration 49.95 uM, Number of replicates 2.0, Standard deviation 1.2441700790071646 %) is on record?
A: -0.54%

Q: What about the inhibition (Thailand/16681/1984, Concentration 99.9 uM, Number of replicates 2.0, Standard deviation 1.3300226430755788 %) of the same compound?
A: 0.901%

Q: What does the source list for `CC(C)(CO)NC(=O)c1cc(Cl)cc(NC(=O)c2cc(C(N)=O)[nH]n2)c1`?
A: inhibition (Thailand/16681/1984, Concentration 49.5 uM, Number of replicates 2.0, Standard deviation 1.4418289783075546 %): -1.68%; inhibition (Thailand/16681/1984, Concentration 99.01 uM, Number of replicates 2.0, Standard deviation 0.879186931981426 %): -0.744%; inhibition (Thailand/16681/1984, Concentration 198.0 uM, Number of replicates 2.0, Standard deviation 2.4633202398415794 %): 1.6%

Q: How did the inhibition [1] turn out when `O=Cc1ccc(N2CCC(C(=O)NC34CC5CC(CC(C5)C3)C4)CC2)cc1` was run?
A: 13.2%

Q: Which results are given for `O=C(O)c1cccc(NC(=O)c2ccc(Br)cc2)c1`?
A: inhibition (Thailand/16681/1984, Concentration 49.5 uM, Number of replicates 2.0, Standard deviation 0.8423395017617462 %): 0.479%; inhibition (Thailand/16681/1984, Concentration 99.01 uM, Number of replicates 2.0, Standard deviation 1.3399119348291484 %): 0.474%; inhibition (Thailand/16681/1984, Concentration 198.0 uM, Number of replicates 2.0, Standard deviation 0.6059687589825926 %): 2.3%

Q: With `CCn1ccnc(N2CC[C@H](C(C)(C)C)C2)c1=O` as the compound, how does the inhibition (Thailand/16681/1984, Concentration 49.5 uM, Number of replicates 2.0, Standard deviation 0.3173030547764478 %) read?
A: 3.7%

Q: What about the inhibition (Thailand/16681/1984, Concentration 99.01 uM, Number of replicates 2.0, Standard deviation 0.33036520606694414 %) of the same compound?
A: 9.97%

Q: And the inhibition (Thailand/16681/1984, Concentration 198.0 uM, Number of replicates 2.0, Standard deviation 0.16055589059134015 %)?
A: 19.7%

Q: For `C[C@@H](CNC(=O)C1CCN(c2ccc(C=O)cc2)CC1)N(C)c1ccccc1`, which inhibition [1] is on record?
A: 14.4%

Q: With `O=C(NCCc1ncc[nH]1)c1ccn([C@H]2CCCNC2)n1` as the compound, how does the inhibition (Thailand/16681/1984, Concentration 49.5 uM, Number of replicates 2.0, Standard deviation 2.386405138905033 %) read?
A: -4.85%

Q: What about the inhibition (Thailand/16681/1984, Concentration 99.01 uM, Number of replicates 2.0, Standard deviation 1.7399173269947343 %) of the same compound?
A: -3.44%

Q: What about the inhibition (Thailand/16681/1984, Concentration 198.0 uM, Number of replicates 2.0, Standard deviation 2.078401786252514 %) of the same compound?
A: -3.46%

Q: Which results are given for `Cc1nn(Cc2ccccc2OC(F)F)cc1C1CCNCC1`?
A: inhibition (Thailand/16681/1984, Concentration 49.5 uM, Number of replicates 2.0, Standard deviation 0.06069525507205339 %): -1.27%; inhibition (Thailand/16681/1984, Concentration 99.01 uM, Number of replicates 2.0, Standard deviation 0.21107457835619564 %): -0.975%; inhibition (Thailand/16681/1984, Concentration 198.0 uM, Number of replicates 2.0, Standard deviation 0.9955837043898559 %): -0.593%

Q: How did the inhibition [1] turn out when `O=Cc1ccc(N2CCC(C(=O)NC3CCN(C(=O)NC4CCCCC4)CC3)CC2)cc1` was run?
A: 14.6%
